According to the supplement of paper PMC12217912:
Some of the results follow. Sequences were assembled here from the parent chain. Inactive controls read about 0.05.

B1: TEV protease; numbered along this chain (parent)
chain: MGESLFKGPRDYNPISSSICHLTNESDGHTTSLYGIGFGPFIITNKHLFRRNNGTLVVQSLHGVFKVKDTTTLQQHLVDGRDMIIIRMPKDFPPFPQKLKFREPQREERICLVTTNFQTKSMSSMVSDTSCTFPSGDGIFWKHWIQTKDGQCGSPLVSTRDGFIVGIHSASNFTNTNNYFTSVPKNFMELLTNQEAQQWVSGWRLNADSVLWGGHKVFMVKPEEPFQPVKEATQL

Variants of: B1
Experiment: raw area under fraction-flipped curve 0-4 h after induction (AUC4h, not background-subtracted), DNA-recorder readout of cleavage of the substrate (dimensionless); higher = more cleavage of the substrate by the protease variant
Conditions: temperature: 34 °C; time window: 0-4 h after rhamnose induction
Method: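 In vivo DNA recorder in E. coli TOP10(DE3) ΔrhaA at 34 °C. Each TEVp single-site mutant (parent TEVp 0) is paired with a single-site variant of the 7-mer TEVs (canonical ENLYFQ|S). The substrate sits between flexible linkers in a Bxb1-sfGFP-TEVs-SsrA fusion, so cleavage stabilises Bxb1 and speeds flipping of a recombination array, read by NGS. The value is the raw area under the fraction-flipped curve over 0-4 h after rhamnose induction (AUC4h), with ≥20 reads per time point. It is not background-subtracted; inactive controls average about 0.047.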
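Note: Bxb1 expression induced with 0.2% (w/v) L-rhamnose at OD600 near 0.5, cultures sampled hourly, flipped fraction per protease–substrate barcode pair counted by paired-end Illumina sequencing.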

Variant	area with substrate ENLYFQA	area with substrate ENLYFQC	area with substrate ENLYFQK	area with substrate ENLYFQS	area with substrate ENLYFQT	area with substrate ENLYFQY	area with substrate ENLYFQH	area with substrate ENLYFQI	area with substrate ENLYFQL	area with substrate ENLYFQM	area with substrate ENLYFQN	area with substrate ENLYFQR	area with substrate ENLYFQW	area with substrate ENLYFQG	area with substrate ENLYFQV	area with substrate ENLYFQD	area with substrate ENLYFQE	area with substrate ENLYFQP	area with substrate ENLYFQF	area with substrate ENLYFQQ
N175E	0.074	0.0956	0.0628	0.0759	0.0644	0.0673														
G162S	0.123	0.0852	0.0384	0.0909	0.0843		0.0613	0.0799	0.0644	0.0781	0.0907	0.0682	0.0673							
G162A	0.103		0.116	0.0965	0.0572	0.0787		0.0627	0.054	0.0722				0.112	0.0792					
H168C	0.067	0.0622		0.0622	0.0596		0.0677	0.0811	0.06	0.0596	0.0628	0.0529	0.0473			0.0498	0.0498	0.0692		
F173M	0.113	0.141	0.0816	0.109		0.061	0.0559		0.0585	0.0806		0.0523	0.0813			0.0735	0.0557	0.0409	0.0567	
I167S	0.0674	0.0827	0.0594	0.074	0.0525	0.0703	0.0822	0.0514	0.0475	0.0607	0.0592	0.0537		0.0735	0.0636			0.056	0.0377	
S171V	0.0751	0.0844	0.0597	0.0751	0.0817		0.0672	0.061	0.063	0.0636	0.0709	0.0511		0.0498	0.0521				0.0627	
W199R	0.0675	0.0693	0.0617	0.0612	0.0598	0.0658	0.0608	0.0574	0.0584		0.0541	0.0674	0.0541		0.0587	0.0736				
W199C	0.0596	0.0698	0.073	0.0659	0.062	0.0697		0.0597		0.0524	0.0339					0.0684				
M219Y	0.0973	0.116		0.111	0.0491			0.0498	0.058	0.0939					0.0582					
M219I	0.0846	0.111	0.0459	0.0993	0.0501	0.0693		0.0525	0.0551			0.0589	0.0764			0.0685		0.0791		
M219G	0.0753	0.0888	0.0619	0.0828	0.0668		0.0604	0.0568	0.0566	0.0762	0.0461	0.0573	0.0547	0.0639	0.0573			0.0588		
G202Y	0.0685	0.0485	0.0582	0.065	0.055	0.0493	0.0517		0.0481		0.078	0.0606		0.0606	0.0309	0.0705			0.0573	0.0345
M188E	0.0781	0.114	0.0722	0.0964					0.0665	0.102	0.0918									
M188W	0.0783	0.131	0.067	0.101	0.0418	0.076		0.0611			0.0592	0.0661	0.0715	0.0978	0.0647			0.0302	0.07	
V200M	0.0709	0.0646	0.0552	0.0825	0.0603	0.0468	0.0652	0.0607	0.0674	0.0748	0.0764	0.0501	0.0566		0.0826	0.0813		0.0553		
L191M	0.121	0.096	0.063	0.0954	0.071	0.069	0.0714	0.064	0.0581	0.0786	0.069	0.0627	0.0656	0.094	0.0621	0.0523		0.0689		
L191G	0.0675		0.0689	0.0605	0.0613	0.0685	0.0433	0.0499	0.06		0.049	0.0574	0.0423	0.064		0.0529				
P222E	0.0848	0.135	0.0598	0.111	0.0565	0.0868	0.0771	0.0562	0.0518	0.0859		0.0803	0.0502	0.139	0.0608	0.0664		0.0629	0.0715	
L190H	0.108	0.0999		0.0899			0.0677	0.0556	0.0581	0.111	0.0593	0.0628	0.0673	0.0733			0.06			0.0723
S201A	0.103	0.106	0.0819	0.0961		0.0727		0.0629	0.0671	0.0697	0.0704	0.0532				0.065	0.051	0.0597		
Q227S	0.116			0.106						0.0897	0.065	0.0582	0.0657		0.0604			0.0592		
P225A	0.0645	0.112	0.0599	0.106	0.0671	0.0736	0.0631	0.0666	0.0729		0.0747	0.0581	0.0703	0.116	0.0551	0.0734	0.0616			0.0691
P225L	0.114	0.0993	0.078	0.0951	0.0623	0.0766	0.0665		0.0588	0.0918		0.0569	0.0689	0.0881		0.0758	0.0618			
S182K	0.0809	0.0969	0.0605	0.079		0.0532	0.0688	0.0663	0.0534	0.0723		0.0655	0.0508	0.0837	0.057	0.056	0.0573	0.0606	0.054	0.0586
S182N	0.0796	0.0872		0.0819	0.0473		0.0497	0.0496	0.0469	0.0711	0.053	0.059		0.0993	0.0657	0.0544		0.0522	0.0785	0.0557
